# PubChem BioAssay AID894 (National Center for Advancing Translational Sciences (NCATS), 2007)
# “And” between values parts separate entries of the source, which are not always exact repeats. Identical values can stand only once. The whole screen tested about 150,000 compounds, of which about 6,500 (4.3%) were called active. The inconclusive results got no clear call from the source; some entries with a clear call stand among them for comparison. The call rests on the fitted dose curve; in most records, active means well fitted inhibition curve with a large enough effect (not every such curve was filed as active); inconclusive means small, poorly fitted or top-dose-only effect, or another doubt; inactive means no such curve, though single readings can be large or run the other way. Potencies of inconclusive entries are doubtful fits and often do not repeat.
# Target: 15-hydroxyprostaglandin dehydrogenase [NAD(+)] (Homo sapiens) (UniProt P15428)
# Chain of UniProt P15428 (P15428 whole entry, looked up): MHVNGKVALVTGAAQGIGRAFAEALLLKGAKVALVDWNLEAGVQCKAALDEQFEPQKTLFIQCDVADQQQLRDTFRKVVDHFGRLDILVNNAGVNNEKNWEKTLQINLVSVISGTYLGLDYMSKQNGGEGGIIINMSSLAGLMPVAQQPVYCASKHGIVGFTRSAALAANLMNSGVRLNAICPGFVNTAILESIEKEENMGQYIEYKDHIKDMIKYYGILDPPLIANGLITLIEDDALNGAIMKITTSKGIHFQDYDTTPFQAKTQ
# Assay: qHTS Assay for Inhibitors of HPGD (15-Hydroxyprostaglandin Dehydrogenase)
# Details: purified HPGD, NADH fluorescence kinetic, PGE2 substrate; activity change, negative = inhibition: hits give low values
# How it was run: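 20 nM HPGD preincubated 15 min at room temperature with compound in 50 mM Tris-HCl pH 8, 0.01% Tween 20. Started with 1 mM NAD+ and 30 uM prostaglandin E2; NADH fluorescence (360/450 nm) read 5 times over 30-s intervals, last minus first.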
# On the % scale 0 is the no-effect control and ±100 the full control effect; potency means the concentration at half of the fitted maximal effect; tags describe the fitted curve by direction and shape.
Structure (SMILES),"activity change, negative = inhibition",Potency
COc1ccc(CNCC(O)COCc2cccs2)cc1 (stereo not drawn),inactive: -0.878%,
COC(=O)c1ccccc1NC(=S)NC(=O)c1ccc(C)cc1,inactive: -29.7%,
CC(=O)NS(=O)(=O)c1ccc(NC(=O)CN2C(=O)C3C4C=CC(C4)C3C2=O)cc1 (stereo not drawn),inactive: -7.37%,
Cc1ccc(C(=O)NCC(=O)OCC(=O)Nc2cc(C)c(C)cc2[N+](=O)[O-])cc1,inactive: -12.9%,
CC1CCCC(NC(=O)c2ccc(CNc3c(N4CCCC4)c(=O)c3=O)cc2)C1C (stereo not drawn),,"inconclusive: 28.2 µM [inhibitor, single point]"
Cc1ccc(-n2nc(C)c3c2OC(N)=C(C#N)C3c2ccoc2)cc1 (stereo not drawn),inactive: -27.8%,
O=C(O)CCCn1nc(C(F)(F)F)c2c1CCCCC2,inactive: -15.8%,
COc1ccc2[nH]c(=O)c(CN(CCc3cccc(C)c3)C(C)=O)cc2c1,,"inconclusive: 22.4 µM [inhibitor, single point]"
CN=C(NC#N)Nc1ccc(C2=NNC(=O)CC2C)cc1 (stereo not drawn),inactive: -8.34%,
CCOc1ccc(Cc2nnc(N)s2)cc1OCC,inactive: -5.47%,
CC(C)CNC(=O)c1ccccc1NC(=O)c1ccc(CSc2ccccc2)cc1,,"inconclusive: 28.2 µM [inhibitor, single point]"
S=c1nn[nH]n1C12CC3CC(CC(C3)C1)C2,,"inconclusive: 39.8 µM [inhibitor, single point]"
COc1cc(C(Nc2ccccn2)c2ccc3ccc(C)nc3c2O)cc(OC)c1O (stereo not drawn),,"inconclusive: 28.2 µM [inhibitor, single point]"
CC1(C)CC(=O)C(C(c2cccc(O)c2O)C2C(=O)CC(C)(C)CC2=O)C(=O)C1,inactive: -2.2%,
N#CC1=C(SCC(=O)c2cc3ccccc3oc2=O)NC(=O)C(C#N)C12CCCC2 (stereo not drawn),,"inconclusive: 17.8 µM [inhibitor, partial curve]"
Cc1ccc(C(=O)COC(=O)c2ccc(Br)o2)cc1C,,"inconclusive: 20 µM [inhibitor, partial curve]"
O=C(CCCOc1ccc(Cl)cc1Cl)Nc1ccncc1,,active: 14.1 µM
Cc1cc(C)[n+](-c2ccc(F)cc2)c2[nH]c(=O)[nH]c(=O)c12,,"inconclusive: 8.91 µM [inhibitor, partial curve]"
S=C(NCCC(c1ccccc1)c1ccccc1)Nc1ccccc1Cl,inactive: -9.6%,
Cn1c(CNS(=O)(=O)c2ccc(F)cc2)n[nH]c1=S,inactive: -14.7%,
Cc1ccc(-c2ccc(OCC(=O)N3CCOCC3)cc2)cc1,,"inconclusive: 28.2 µM [inhibitor, single point]"
CCOC(=O)c1c(-c2ccco2)csc1N,inactive: -27.9%,
O=C(O)CC[C@@H](C(=O)O)N1C(=O)[C@@H]2[C@@H]3CC[C@H](C3)[C@@H]2C1=O,inactive: -2.08%,
CCOc1ccc(-n2nc(C(=O)N3CCN(CC)CC3)c3ccccc3c2=O)cc1,inactive: -19.9%,
CC1CCCN(c2ccc(C(=O)NCCc3ccccc3)cn2)C1 (stereo not drawn),,active: 17.8 µM

Structure (SMILES),"activity change, negative = inhibition",Potency
CC(C)Sc1nc(N2CCOCC2)c2c(c1C#N)CC(C)(C)SC2,,"inconclusive: 35.5 µM [inhibitor, single point]"
CCSc1nnc(-c2ccc(S(=O)(=O)N3CCCC3)cc2)n1C,,"inconclusive: 31.6 µM [inhibitor, partial curve]"
c1ccc(CN2CCC(Nc3nc(-c4ccccc4)nc4ccccc34)CC2)cc1,inactive: -8.44%,
COc1ccc(-c2ccccc2)cc1NCc1ccc(OC)c(OC)c1,,"inconclusive: 25.1 µM [inhibitor, single point]"
CN1CCCc2cc(C#N)c(=O)[nH]c21,,"inconclusive: 25.1 µM [inhibitor, partial curve]"
CC(C)C(OC(=O)c1ccco1)C(=O)NCc1ccccc1 (stereo not drawn),,active: 12.6 µM
CSc1nnc(-c2cc3c(s2)-c2ccccc2CC3)o1,,"inconclusive: 35.5 µM [inhibitor, single point]"
CCOC(=O)c1sc(NC(=O)c2ccc(C)s2)cc1C,,"inconclusive: 31.6 µM [inhibitor, partial curve]"
COC(=O)c1sccc1NC(=O)/C=C/c1ccc(Cl)cc1,,"inconclusive: 22.4 µM [inhibitor, partial curve]"
Cc1nc2c(c(=O)n1CCC1=CCCCC1)c1nc3ccccc3nc1n2/N=C/c1ccccc1,,"inconclusive: 31.6 µM [inhibitor, partial curve]"
COc1ccccc1-c1ccc(C(=O)O)o1,,"inconclusive: 35.5 µM [inhibitor, partial curve] and inconclusive: 31.6 µM [inhibitor, partial curve]"
Cc1c(Cl)cccc1NC(=O)Cn1cccc1,,active: 17.8 µM
CCNC(=O)NC(=O)COC(=O)CCCSc1nc2ccccc2s1,inactive: -7.51%,
Cc1cc(OCC(=O)N2CCOCC2)cc2oc(=O)c3ccccc3c12,,"inconclusive: 14.1 µM [inhibitor, partial curve]"
Cc1cc(-n2c(C)cc(C(=O)COc3ccc4ccc(=O)oc4c3)c2C)no1,,"inconclusive: 31.6 µM [inhibitor, single point]"
CCOC(=O)N1CCN(C(=O)c2cc3c(s2)-c2ccccc2OC3)CC1,,"inconclusive: 28.2 µM [inhibitor, partial curve]"
O=C(NCC1CCCO1)c1cc2ccccc2[nH]1 (stereo not drawn),,"inconclusive: 28.2 µM [inhibitor, partial curve]"
CCOC(=O)c1ccc(-c2ccc(/C=C(\C#N)C(=O)NCC3CCCO3)o2)cc1 (stereo not drawn),,"inconclusive: 3.55 µM [inhibitor, full curve]"
CC(C)(C)SCCNC(=O)/C=C/c1cccc([N+](=O)[O-])c1,inactive: -7.43%,
Cc1ccc2nc(CSc3nc(C)cc(C)c3C#N)[nH]c2c1,,"inconclusive: 22.4 µM [inhibitor, partial curve]"
CCNC(=S)N(Cc1ccccc1)Cc1nc2ccccc2c(=O)[nH]1,,"inconclusive: 28.2 µM [inhibitor, partial curve]"
COc1ccc(CNc2ccc(-c3ccccc3OC)nn2)cc1,,active: 15.8 µM
O=C(Cn1ncc2c3ccccc3n(Cc3ccc(F)cc3)c2c1=O)N1CCN(c2ncccn2)CC1,,"inconclusive: 39.8 µM [inhibitor, single point]"
CC(=O)n1nc(-c2ccco2)nc1SCc1ccccc1,,active: 12.6 µM
CC(=O)Nc1nnc(-c2ccc(Cl)s2)o1,,"inconclusive: 31.6 µM [inhibitor, partial curve]"

Structure (SMILES),"activity change, negative = inhibition",Potency
CCn1c2c(c3cc(OCC(C)C)ccc31)CCCC2=O,,"inconclusive: 35.5 µM [inhibitor, partial curve]"
Cc1coc(C)c1C(=O)CC1(O)C(=O)N(CCc2ccccc2)c2ccccc21 (stereo not drawn),,"inconclusive: 39.8 µM [inhibitor, single point]"
COCC(=O)NC(c1ccccc1)c1ccccc1,inactive: -3.49%,
Cc1ccc(S(=O)(=O)N=C2SCCCS2)cc1,,"inconclusive: 28.2 µM [inhibitor, single point]"
CCOC(=O)c1ccc2c(c1)nc(SCC(=O)NC(C)C)n2CC,,active: 31.6 µM
O=C(NC(O)C(=O)c1ccccc1)c1cccs1 (stereo not drawn),inactive: -7.52%,
COc1cccc(-c2nn(C)c3sc(C(=O)NCc4ccc5c(c4)OCO5)cc23)c1,,"inconclusive: 35.5 µM [inhibitor, single point]"
COc1nc(-c2cccs2)cc(-c2ccc(C)cc2)c1C#N,,"inconclusive: 28.2 µM [inhibitor, partial curve]"
COC(=O)C1=C(C)NC(C)=C(C(=O)OC)C1c1ccc(OC(=O)c2oc3ccccc3c2C)c(OC)c1,,"inconclusive: 35.5 µM [inhibitor, single point]"
O=C(O)c1ccc2c(c1)C(=O)/C(=C/c1ccccc1)C2=O,,active: 12.6 µM
CN1CCN(C(=O)c2cc3nc(-c4ccccc4)cc(-c4ccccc4)n3n2)CC1,,"inconclusive: 14.1 µM [inhibitor, partial curve]"
CCOC(=O)Nc1oc2ccccc2c(=O)c1C,,"inconclusive: 25.1 µM [inhibitor, partial curve]"
Cc1ccc(NC(=O)Nc2ccccc2)cc1[N+](=O)[O-],inactive: -19.6%,
CCN(CC)CCn1c(SCC(=O)NCc2ccco2)nc2c(sc3ccccc32)c1=O,,"inconclusive: 22.4 µM [inhibitor, partial curve]"
c1coc(C2Nc3ccccc3C3OCCC23)c1 (stereo not drawn),,"inconclusive: 25.1 µM [inhibitor, partial curve]"
COC(=O)c1ccccc1-c1ccc(/C=N/NC(=O)c2cc3ccccc3o2)o1,,"inconclusive: 28.2 µM [inhibitor, partial curve]"
CS(=O)(=O)N(CC(=O)Nc1cccnc1)c1ccc2c(c1)OCCO2,inactive: -6%,
O=C(c1ccc(NC(=S)Nc2ccc(Cl)c(Cl)c2)cc1)N1CCCC1,,active: 11.2 µM
CN1CCC2(CC1)C1CN(C)CC=C1C(C#N)=C(N)C2(C#N)C#N (stereo not drawn),,"inconclusive: 35.5 µM [inhibitor, partial curve]"
COc1ccc(/C=C/C(=O)C2C(=O)C=C(C)OC2=O)cc1O (stereo not drawn),inactive: -21.1%,
COc1ccccc1/C=C/C=N/n1c(-c2ccncc2)n[nH]c1=S,,active: 14.1 µM
N#C/C(=C\c1ccc(N2CCOCC2)o1)c1ccccc1,,"inconclusive: 0.178 µM [inhibitor, full curve, poor fit]"
O=c1nc(NCc2ccco2)sc2ncccc12,,"inconclusive: 25.1 µM [inhibitor, single point]"
